Test results taken from publication PMC11320581 (ACS Infectious Diseases, 2024).

Experiments:
[1] = target: T1, N. gonorrhoeae topoisomerase IV (Neisseria gonorrhoeae, UniProt P48374+Q5F754); experiment: biochemical
[2] = target: T1, N. gonorrhoeae topoisomerase IV; conditions: previous study; cited from earlier work

C[C@@H]1CN2c3c(cc4c(N5C(=O)OC[C@@H]5C)noc4c3F)CC3(C(=O)NC(=O)NC3=O)[C@H]2[C@H](C)O1 [zoliflodacin, Zoliflodacin]
EC50 [1]: ~55 µM | fold lower cleavage complexes with positively compared to negatively supercoiled DNA ([1]; topoisomerase IV 200 nM, in the absence and presence of zoliflodacin): ~3 fold | total (double-stranded + single-stranded) DNA cleavage ([1]; topoisomerase IV, 100 μM): 19.6% | double-stranded DNA cleavage ([1]; wild-type topoisomerase IV, 100 μM): 12.0% | IC50 for decatenation, fold higher than that for supercoiling [2]: ~3 fold
